Assay [1] relates to RAW-Dual. Nature of the assay: IRF Lucia reporter activity, fold change vs agonist alone; cytotoxicity flag (confluency mask): not cytotoxic; higher = enhanced IRF activity. Summed up: (§1)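 Reporter activity is given as fold change relative to agonist-alone wells. To measure it, 50 nL of library stock was pin-tooled onto RAW-Dual macrophages (50,000 cells/well, DMEM, 384-well plates), a PRR agonist followed 1 h later, and cells stayed at 37 °C, 5% CO2. Twenty hours on, supernatant was assayed for IRF (QuantiLuc luminescence) and NF-κB (QuantiBlue, 620 nm absorbance), and wells under 70% of agonist-control IncuCyte confluency in both mask sets were marked cytotoxic.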

In assay [2] the test system is RAW-Dual. Nature of the assay: IRF Lucia reporter activity, fold change vs agonist alone; higher = enhanced IRF activity. The following applies: agonist: MPLA (TLR4) […]. An outline of the steps:
as §1

Assay [3] concerns RAW-Dual. Nature of the assay: IRF Lucia reporter activity, fold change vs agonist alone; cytotoxicity flag (confluency mask): cytotoxic (confluency <70% of control); higher = enhanced IRF activity. Summed up: as §1
Where [4] appears, read: agonist: 3'3'-cGAMP (STING) 10 ug/mL.
The mark [5] stands for this setting: library stock concentration (final ~1000-fold dilution): 10 mM, cytotoxicity flag (confluency mask): not cytotoxic.

Each structure is given as a SMILES string. Whole data set: some 2,900 compounds, median “IRF Lucia reporter activity, fold change vs agonist alone” near 0.9, cut for the highest 2% near 2.8. This is one part of the list.

Turning to `C#Cc1cccc(Nc2ncnc3cc4c(cc23)OCCOCCOCCO4)c1` (library stock concentration (final ~1000-fold dilution): 10 mM), the “IRF Lucia reporter activity” value is 0.377 in the assay on RAW-Dual [1] (setting [4]) and 0.533 in the assay on RAW-Dual [1] (agonist: LPS (TLR4) 0.1 ug/mL).
Take `C#Cc1cccc(Nc2ncnc3cc4c(cc23)OCCOCCOCCO4)c1`: the “IRF Lucia reporter activity” value with RAW-Dual [2] (setting [5]) was 0.699.
Regarding `Cc1ncc(CO)c(CO)c1O` (library stock concentration (final ~1000-fold dilution): 10 mM), the “IRF Lucia reporter activity” value in the assay on RAW-Dual [1] (setting [4]) worked out at 0.88; with RAW-Dual [1] (agonist: LPS (TLR4) 0.1 ug/mL), 1.12.
The matching figures for `O=C(O)c1ccc(-c2c[nH]c3ncc(-c4ccccc4)cc23)cc1C1CCCC1` (library stock concentration (final ~1000-fold dilution): 10 mM): 0.056 and 0.712.
Take `O=C(O)c1ccc(-c2c[nH]c3ncc(-c4ccccc4)cc23)cc1C1CCCC1`: in the assay with RAW-Dual [2] (setting [5]), the “IRF Lucia reporter activity” value was 0.903.
Take `OC(c1ccccc1)(c1ccccc1)C12CC[N+](CCOCc3ccccc3)(CC1)CC2` (library stock concentration (final ~1000-fold dilution): 10 mM): the “IRF Lucia reporter activity” value in the assay with RAW-Dual [1] (setting [4]) turned out to be 1.1; with RAW-Dual [1] (agonist: LPS (TLR4) 0.1 ug/mL) it was 0.795.
As for `OC(c1ccccc1)(c1ccccc1)C12CC[N+](CCOCc3ccccc3)(CC1)CC2`, the “IRF Lucia reporter activity” value in the assay with RAW-Dual [2] (setting [5]) worked out at 1.13.
For the compound `COc1cc2nccc(Oc3ccc(NC(=O)NC4CC4)c(Cl)c3)c2cc1C(N)=O.CS(=O)(=O)O` (library stock concentration (final ~1000-fold dilution): 10 mM), the “IRF Lucia reporter activity” value is 0.502 in the assay with RAW-Dual [1] (setting [4]) and 0.54 in the assay with RAW-Dual [1] (agonist: LPS (TLR4) 0.1 ug/mL).
As for `COc1cc2nccc(Oc3ccc(NC(=O)NC4CC4)c(Cl)c3)c2cc1C(N)=O.CS(=O)(=O)O`, the “IRF Lucia reporter activity” value in the assay with RAW-Dual [2] (setting [5]) amounted to 0.583.
As for `COc1cc2c(cc1-c1c(C)noc1C)ncc1[nH]c(=O)n(C(C)c3ccccn3)c12` (stereo unspecified), the “IRF Lucia reporter activity” value with RAW-Dual [2] (library stock concentration (final ~1000-fold dilution): 10 mM, cytotoxicity flag (confluency mask): cytotoxic (confluency <70% of control)) stood at 0.171.
Consider `COc1cc2c(cc1-c1c(C)noc1C)ncc1[nH]c(=O)n(C(C)c3ccccn3)c12` (stereo unspecified) (library stock concentration (final ~1000-fold dilution): 10 mM), for which the “IRF Lucia reporter activity” value was 0.483 with RAW-Dual [3] (setting [4]) and 0.19 in the assay on RAW-Dual [3] (agonist: LPS (TLR4) 0.1 ug/mL).
Consider `O=c1oc2cc(O)ccc2c2ccc(O)cc12` (library stock concentration (final ~1000-fold dilution): 10 mM), for which the “IRF Lucia reporter activity” value with RAW-Dual [1] (setting [4]) is 0.133; in the assay on RAW-Dual [1] (agonist: LPS (TLR4) 0.1 ug/mL) it was 1.99.
Regarding `Cc1cc(Nc2ncc3c(n2)N(C)C(=O)N(c2cc(NC(=O)c4cccc(C(F)(F)F)c4)ccc2C)C3)n(C)n1` (library stock concentration (final ~1000-fold dilution): 10 mM), the “IRF Lucia reporter activity” value with RAW-Dual [3] (setting [4]) is 0.0478; in the assay on RAW-Dual [3] (agonist: LPS (TLR4) 0.1 ug/mL), 0.0205.
As for `O=C(Nc1nc2cccc(-c3ccc(CN4CCS(=O)(=O)CC4)cc3)n2n1)C1CC1` (library stock concentration (final ~1000-fold dilution): 10 mM), the results for the “IRF Lucia reporter activity” value in the assay with RAW-Dual [1] (setting [4]) and in the assay on RAW-Dual [1] (agonist: LPS (TLR4) 0.1 ug/mL) were 1.1 and 3.4, respectively.
Regarding `CNCc1cc(-c2ccccc2F)n(S(=O)(=O)c2cccnc2)c1.O=C(O)/C=C/C(=O)O` (library stock concentration (final ~1000-fold dilution): 10 mM), the entries for the “IRF Lucia reporter activity” value in the assay with RAW-Dual [1] (setting [4]) and in the assay on RAW-Dual [1] (agonist: LPS (TLR4) 0.1 ug/mL) were 1.17 and 1.14, respectively.
In the same order, the values of `Cc1cc(CN2CCN(c3c(Br)cnc4[nH]c(-c5ccc(N6CCN(C)CC6)cc5)nc34)CC2)no1` (library stock concentration (final ~1000-fold dilution): 2 mM) are 0.0281 and 0.176.
With `Cc1cc(CN2CCN(c3c(Br)cnc4[nH]c(-c5ccc(N6CCN(C)CC6)cc5)nc34)CC2)no1`, in the assay with RAW-Dual [2] (library stock concentration (final ~1000-fold dilution): 2 mM, cytotoxicity flag (confluency mask): not cytotoxic), the “IRF Lucia reporter activity” value came out at 0.939.
`CC(=O)Oc1ccccc1C(=O)O`: the “IRF Lucia reporter activity” value with RAW-Dual [2] (setting [5]) was found to be 1.09.
Consider `CC(=O)Oc1ccccc1C(=O)O` (library stock concentration (final ~1000-fold dilution): 10 mM), for which the “IRF Lucia reporter activity” value amounted to 1.05 in the assay with RAW-Dual [1] (setting [4]) and 0.995 with RAW-Dual [1] (agonist: LPS (TLR4) 0.1 ug/mL).
Regarding `O=c1cc(-c2ccccc2)oc2cc(O)ccc12`, the “IRF Lucia reporter activity” value in the assay with RAW-Dual [2] (setting [5]) was 0.85.
`O=c1cc(-c2ccccc2)oc2cc(O)ccc12` (library stock concentration (final ~1000-fold dilution): 10 mM): the “IRF Lucia reporter activity” value with RAW-Dual [1] (setting [4]) is 0.894; in the assay with RAW-Dual [1] (agonist: LPS (TLR4) 0.1 ug/mL), 0.852.
In the same order, the values of `Nc1nc(NC2CC2)cc(-c2cccc(Cl)c2Cl)n1` (library stock concentration (final ~1000-fold dilution): 10 mM) are 0.986 and 0.661.
Regarding `CC(C)=CC[C@@H](O)C1=CC(=O)c2c(O)ccc(O)c2C1=O` (library stock concentration (final ~1000-fold dilution): 10 mM), the “IRF Lucia reporter activity” value with RAW-Dual [3] (setting [4]) worked out at 0.0149; in the assay with RAW-Dual [3] (agonist: LPS (TLR4) 0.1 ug/mL) it was 0.0176.
For `CN(C)CC/C=C1\c2ccccc2COc2ccccc21.Cl`, the “IRF Lucia reporter activity” value in the assay on RAW-Dual [2] (setting [5]) stood at 1.11.
Regarding `CN(C)CC/C=C1\c2ccccc2COc2ccccc21.Cl` (library stock concentration (final ~1000-fold dilution): 10 mM), the “IRF Lucia reporter activity” value came out at 0.7 in the assay on RAW-Dual [1] (setting [4]) and 0.94 in the assay with RAW-Dual [1] (agonist: LPS (TLR4) 0.1 ug/mL).
On to `O=C(c1ccc(F)c(F)c1Nc1ccc(I)cc1F)N1CC(O)(C2CCCCN2)C1` (stereo unspecified) (library stock concentration (final ~1000-fold dilution): 10 mM), for which the “IRF Lucia reporter activity” value was 0.077 in the assay on RAW-Dual [3] (setting [4]) and 0.902 in the assay on RAW-Dual [3] (agonist: LPS (TLR4) 0.1 ug/mL).
For the compound `CCc1cc2c(cc1N1CCC(N3CCOCC3)CC1)C(C)(C)c1[nH]c3cc(C#N)ccc3c1C2=O` (library stock concentration (final ~1000-fold dilution): 10 mM), the “IRF Lucia reporter activity” value in the assay on RAW-Dual [1] (setting [4]) worked out at 0.992; in the assay on RAW-Dual [1] (agonist: LPS (TLR4) 0.1 ug/mL), 1.42.
Take `CCc1cc2c(cc1N1CCC(N3CCOCC3)CC1)C(C)(C)c1[nH]c3cc(C#N)ccc3c1C2=O`: in the assay with RAW-Dual [2] (setting [5]), the “IRF Lucia reporter activity” value was found to be 0.952.
